Among all 150,000 compounds or so, about 540 (0.36%) showed an effect of 50% or more. Some of the results follow.

As a reminder, the % Inhibition is the relative decrease from the control value, in per cent.

The subject of this test is Plasmodium falciparum. The test can be described thus: Primary screen in NF54 nanoGlo assay, in single point, at 2uM, 72h; a lower Z score goes with more inhibition. In kind it is functional, Erythrocyte. As to conditions: timepoint 72 hour.
Take `Cc1n[nH]c(CN(C)c2nc(CN3CCCCC3)nc3scc(-c4ccccc4)c23)n1`: the “% Inhibition” value is on record as 35% and the Z score is listed as -3.57.

`CCC(CC)NS(=O)(=O)c1ccc(C)cc1`: the “% Inhibition” value was found to be 0% and the Z score is reported as -0.06.

On to `Cc1nnc(COC(=O)c2cc(O)ccc2C(F)(F)F)n1C`, for which the “% Inhibition” value is given as -9% and the Z score turned out to be 1.52.

With `CC(C1CCCCC1)N1C(=O)NC(CC(F)(F)F)C1=O` (stereo not drawn), the “% Inhibition” value is recorded as -17% and the Z score came out at 2.32.

Regarding `COC(=O)[C@H](Cc1ccc(OC)cc1)NC(=O)[C@H]1CN(C(C)=O)CCN1C(=O)C1CCCCC1`, the “% Inhibition” value was 0% and the Z score is given as 0.06.

Take `CCn1ncc(NC(=O)Cn2ccc3cccc(F)c32)n1`: the “% Inhibition” value is listed as -16% and the Z score is 2.28.

Take `CN(Cc1ccc(F)cc1)C(=O)[C@@H]1NCc2ncncc21`: the “% Inhibition” value is on record as -5% and the Z score is given as 1.

Regarding `Cn1cnnc1CN1CCC[C@H]1C(=O)NCC1CCCCC1`, the “% Inhibition” value is on record as -4% and the Z score amounted to 0.7.

Take `Cc1ccc(C(=O)N(C(C)C)C(C)C)c(Cl)c1`: the “% Inhibition” value is 12% and the Z score is on record as -1.53.

Take `CCc1nnsc1C(=O)N1CCC(C(N)=O)(c2ccccc2)CC1`: the “% Inhibition” value is on record as 2% and the Z score was -0.3.

Consider `COCCCNC(=O)[C@@H]1CC2(CCN(S(=O)(=O)Cc3ccccc3)CC2)C(=O)N1C`, for which the “% Inhibition” value is listed as -11% and the Z score amounted to 1.36.

With `CC(C)N(C)c1cccc(NC(=O)N(C)C2CCC(CO)CC2)c1` (stereo not drawn), the “% Inhibition” value is given as -14% and the Z score came to 1.61.

As to `CCOc1cccc(OCC#CCNC)c1`, the “% Inhibition” value is reported as -16% and the Z score amounted to 1.7.

Take `CCOC(=O)c1ccc(NC(=O)Cn2nc3c(N4CCOCC4)nccn3c2=O)cc1`: the “% Inhibition” value is -1% and the Z score came to 0.12.

`CN(C)[C@H]1CN(C(=O)c2cccc(-c3ccc4c(=O)[nH]ccc4c3)c2)C[C@@H]1O`: the “% Inhibition” value is 3% and the Z score is given as -0.6.

As to `CS(=O)(=O)NC[C@H](O)C1CCCC1`, the “% Inhibition” value was determined as 1% and the Z score is -0.11.

On to `Cc1cccc(OCC(=O)N2CCN(S(=O)(=O)c3cc4c(cc3C)NC(=O)CO4)CC2)c1`, for which the “% Inhibition” value is -8% and the Z score worked out at 0.79.

Regarding `COCCOc1nc(-c2ccco2)n(-c2cccc(NC(=O)Nc3cccc(Cl)c3)c2)n1`, the “% Inhibition” value was -6% and the Z score is 0.84.

Regarding `Cc1cc(C(=O)N2CC[C@H](Cc3cccc(CO)c3)C2)c2c(C)noc2n1`, the “% Inhibition” value amounted to 2% and the Z score is given as -0.39.

As for `COCc1c(C(=O)NCCN2CCOCC2)cnn1-c1ncc2c(n1)-c1ccccc1CCC2`, the “% Inhibition” value is reported as 3% and the Z score is on record as -0.44.

For the molecule `Cc1cnccc1NC(=O)CC1CCCCC1`, the “% Inhibition” value was -10% and the Z score came out at 0.87.

As for `Cc1cc(C(=O)N[C@@H](CNC(=O)OC(C)(C)C)C(F)(F)F)ncn1`, the “% Inhibition” value is reported as -11% and the Z score is on record as 1.36.

On to `O=C(NCCF)NCC1(Cc2ccc(F)cc2)CC1`, for which the “% Inhibition” value came to 2% and the Z score was -0.39.

Consider `O=C(c1ccnc(C2CC2)n1)N1C[C@@H]2Oc3c(F)ccc(F)c3O[C@@H]2C1`, for which the “% Inhibition” value is on record as -9% and the Z score is listed as 0.93.

On to `O=C(C[C@H]1CCS(=O)(=O)C1)Nc1nc(-c2ccc(Br)cc2)cs1`, for which the “% Inhibition” value worked out at 1% and the Z score was -0.08.

For `CCOc1ccc2c(C)c(C(=O)N3C[C@H](C4CC4)[C@@H](N)C3)oc2c1OCC`, the “% Inhibition” value is listed as -4% and the Z score stood at 0.74.

Regarding `Cc1ccc(N[C@H](C#N)c2c(C)[nH]c(=O)[nH]c2=O)cc1`, the “% Inhibition” value is on record as 2% and the Z score is recorded as -0.2.

Take `Cc1n[nH]c(C)c1CNCCc1cccnc1`: the “% Inhibition” value was -8% and the Z score turned out to be 1.13.

`COc1cccc(N2CCC[C@H](NC(=O)c3ccnc(OC)n3)C2)c1`: the “% Inhibition” value was -11% and the Z score is listed as 1.56.

For `Brc1ccc(-c2noc([C@H]3CCc4cncn4C3)n2)cc1`, the “% Inhibition” value is recorded as -7% and the Z score came out at 0.7.

For the molecule `O=C1C[C@H](N2CCN(S(=O)(=O)c3ccccc3F)CC2)C(=O)N1c1ccccc1Cl`, the “% Inhibition” value turned out to be 6% and the Z score is -0.87.

Take `Cc1c(NC(=O)CNC[C@H]2CCCO2)cccc1OC1CCCC1`: the “% Inhibition” value is reported as 1% and the Z score is -0.17.

For `COc1ccc(CCNC(=O)C(=O)NCC(C)C)cc1`, the “% Inhibition” value was -14% and the Z score was determined as 2.11.

In the case of `O=C(NCc1cocn1)C12CCC(C(F)(F)F)(CC1)CC2`, the “% Inhibition” value is recorded as -1% and the Z score was found to be 0.12.

Consider `CC(=O)N1CCC(N(Cc2ccc3c(c2)CCO3)S(=O)(=O)c2ccc(C)cc2Cl)CC1`, for which the “% Inhibition” value is given as -11% and the Z score is 1.5.

As for `Cc1noc(C)c1-c1noc(C(F)=C2CCCC2)n1`, the “% Inhibition” value is on record as -8% and the Z score stood at 0.79.

As to `Cc1cc(=O)c(OCC(=O)NCc2c(C)nn(C)c2C)c[nH]1`, the “% Inhibition” value is reported as -10% and the Z score was 1.48.

Regarding `Cc1ccn2cc(CN(C)Cc3snnc3C)nc2c1`, the “% Inhibition” value is on record as -6% and the Z score is reported as 1.2.

Take `COc1cc(-c2nnc(NC(=O)Cc3cccc4ccccc34)o2)cc(OC)c1OC`: the “% Inhibition” value was -3% and the Z score is 0.42.

For `CCOc1nc(C)c(NC(=O)CC(C)C)c(C)n1`, the “% Inhibition” value was -4% and the Z score stood at 0.55.

Regarding `O=C(CC(c1ccccc1)c1ccccc1)N(Cc1ccsc1)Cc1ccccn1`, the “% Inhibition” value was -2% and the Z score is 0.27.

`O=C(O)Cn1nc(C2CC2)c2c(C(F)(F)F)cc(C3CC3)nc21`: the “% Inhibition” value was -34% and the Z score worked out at 3.95.

Consider `O=C(COC[C@H]1CCCO1)NCCc1nccs1`, for which the “% Inhibition” value is reported as -3% and the Z score turned out to be 0.39.

On to `Cc1ncsc1C(=O)N1CC=C(n2c(=O)[nH]c3ccccc32)CC1`, for which the “% Inhibition” value is -7% and the Z score stood at 1.34.

In the case of `O=C1Nc2ccccc2S(=O)(=O)N1Cc1csc(-c2ccoc2)n1`, the “% Inhibition” value was -12% and the Z score came out at 1.66.

Regarding `Cn1c(-c2n[nH]c3c2CCCC3)nnc1N1CCCC2(CC2)C1`, the “% Inhibition” value is reported as 11% and the Z score was -1.98.

For `Cc1cc(Cl)c(C(=O)NC(C)(CO)CO)cc1C`, the “% Inhibition” value turned out to be 3% and the Z score is recorded as -0.51.

Take `CCc1[nH]c(Cc2ccccc2)cc1C(=O)O`: the “% Inhibition” value was -6% and the Z score is reported as 0.94.

As to `Cc1ccc(NS(=O)(=O)c2ccc3c(c2)C(C)(C)CN3CC(=O)N2CCCC2)cc1C`, the “% Inhibition” value is -7% and the Z score is recorded as 1.41.

`COC(=O)c1cncc(CNC(=O)CCOc2ccc(C)c(C)c2)c1`: the “% Inhibition” value is -6% and the Z score came out at 0.91.

Turning to `COCCN1CN(C(=O)N[C@@H](C2CCCC2)C(F)(F)F)CC1=O`, the “% Inhibition” value is recorded as -11% and the Z score came out at 1.91.

On to `CCN1CCN(C(=O)CN2C(=O)COc3ccc(C(=O)N4CCCC4)cc32)CC1`, for which the “% Inhibition” value was determined as 15% and the Z score is given as -2.01.

As for `CC(C)c1cccc(OCC(=O)c2ccc3c(c2)N(CC(=O)N2CCCC2)C(=O)CO3)c1`, the “% Inhibition” value is 10% and the Z score is listed as -1.22.

For the molecule `CC(C)n1c(=O)c(NCc2cccc(C(F)(F)F)c2)nc2ccncc21`, the “% Inhibition” value stood at 24% and the Z score was -2.33.

(Values after ChEMBL document CHEMBL4888484, “Replenishing the malaria drug discovery pipeline: Screening and hit evaluation of the MMV Hit Generation Library 1 (HGL1) against asexual blood stage Plasmodium falciparum ,using a nano luciferase reporter read-out” (2022).)
